Hit rate of the full screen: of about 48,000 compounds, about 450 (0.94%) were called active. About 19% were inconclusive and are not listed. Calls follow the shape of the dose curve; as a rule, active = well fitted inhibition curve with a large enough effect; inconclusive = small, poorly fitted or top-dose-only effect; inactive = no such curve, though single readings can be large or run the other way. The list shows a part of the results.
Assay: Primary qHTS for Identification of Small Molecule Inhibitors of Huntingtin Promoter Activity; also: nearly all actives have a fitted effect of over 50% in size
Conditions: HEK293 HTT promoter firefly luciferase reporter (activity 0% = vehicle and -100% = no light), 24 h; series mostly up to 57.5 µM; activity change, negative = inhibition: at the top concentration
Outline: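 Quantitative HTS used concentration series of up to 57.5 uM final on HEK293 luciferase reporter cells, 24 h at 37 degrees C. Readout was Dual-Glo firefly luminescence.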

Activity change, negative = inhibition, inactive:
COc1ccc(S(=O)(=O)N2CCCN(CC(=O)Nc3ccc(OC)cc3OC)CC2)cc1 22.8% [at 11.5 µM], COc1ccccc1CNC(=O)CCC1N=C2c3ccccc3N=C(SCC(=O)Nc3ccc(N(C)C)cc3)N2C1=O (centres undefined) -8.14%, Cc1c(C(=O)N(C)C)sc2c1c(=O)n(-c1ccc(Cl)cc1)c(=O)n2Cc1ccccc1F -4.39%, Cc1cccc(OCC(=O)Nc2cc(-c3ccccc3F)nn2-c2ccccc2)c1 -5.46%, CC(C)c1ccc(Nc2ncnc3onc(-c4ccc(F)cc4)c23)cc1 -18.4%, Cc1cc(Cl)ccc1NC(=O)Cn1nnc2sc(-c3ccccc3)cc2c1=O 6.68%, COc1ccc(OC)c2sc(N3CCN(C(=O)CCS(=O)(=O)c4ccc(F)cc4)CC3)nc12 -14.8%, COCCNc1nc2c(c(=O)n(Cc3cccc(Br)c3)c(=O)n2C)n1C -15.7%, COc1cccc(N2CCN(C(=O)c3cc4c(=O)oc5ccc(C)cc5c4s3)CC2)c1 -8.69%, CCCCn1nc(NC(=O)c2cccc(Cl)c2)c2cc3cccc(C)c3nc21 1.29%, CCCn1c2ccccc2c2cnn(CC(=O)N3CCCC(C)C3)c(=O)c21 (centres undefined) -18.3%, CCc1ccccc1-n1c(C)nc2cc(C(=O)NCCc3ccc(Cl)cc3)ccc21 -24.2%, Cc1ccc(CNC(=O)C2CCN(S(=O)(=O)c3cn(C)cn3)CC2)cc1 -19.9%, O=C(NCCCc1nc2ccccc2n1Cc1ccc(Cl)cc1)C1CCCCC1 -27.9%, Cc1ccc(-n2ncc(C(=O)NCCN3CCCC3)c2C2CCN(C(=O)OC(C)(C)C)CC2)cc1C -9.43%, COCCCNC(=O)CCc1c(C)nc2nc(-c3cc(OC)cc(OC)c3)nn2c1C -4.86%, CC(C)N(Cc1ccccc1)S(=O)(=O)c1ccc(-c2cc(C(F)(F)F)on2)s1 -18.5%, CC(C)OCCCNC(=O)CN1C(=O)COc2ccc(S(=O)(=O)N3CCCCCC3)cc21 -2.68%, COCc1c(C(C)C)nc(C(C)C)c(/C=C/[C@@H](O)C[C@@H](O)CC(=O)O)c1-c1ccc(F)cc1 10.9%, CCC(Oc1ccccc1)C(=O)Nc1cc(-c2cccc(C)c2)nn1-c1ccccc1 (centres undefined) -6.35%, COc1ccc(-n2c(C)c(C(C)=O)c3cc(OC(=O)COc4ccccc4)ccc32)cc1 -18.8%, Cc1cc(-c2ccc(C)c(S(=O)(=O)NCc3cccc(Br)c3)c2)on1 -24.1%, CCCS(=O)(=O)N1CC(=O)N(c2cccc(Cl)c2C)C(C)(C(=O)NC2CCCC2)C1 (centres undefined) -0.931%, Cc1cc(C)cc(OCC(=O)N(Cc2cccs2)c2ccc(Cl)cc2)c1 -14.5%, CCCCCn1c(CCNC(=O)c2ccc(F)cc2)nc2ccccc21 -14%, Fc1ccc(-c2nn(-c3ccccc3Cl)c3c2cnc2ccccc23)cc1 -32.3%, COc1ccc(-n2nc(C(=O)N3CCN(c4cccc(C)c4C)CC3)c3c4ccccc4n(C)c3c2=O)cc1Cl -10.7%, Cc1ccc(CNC(=O)Cc2c(C)c3c(cc(C)c4c(C)coc43)oc2=O)cc1 7.8%, COc1cccc(CNC(=O)Cn2ncn3nc(-c4cccs4)cc3c2=O)c1OC -14.5%, O=C(c1ccc2c(c1)N(Cc1ccc(F)cc1)C(=O)c1ccccc1S2(=O)=O)N1CCCC1 -11.6%, CCC(=O)N1CCCc2cc(S(=O)(=O)N3CCC(C(=O)NC4CCCCC4)CC3)ccc21 -12.9%, COc1ccccc1Cn1c(CNS(=O)(=O)c2ccc(C(C)C)cc2)nc2cccnc21 -11.8%, Fc1ccccc1Cc1cn2cc(-c3ccc(Cl)cc3)nc2s1 3.1%, COc1ccccc1NC(=O)c1oc2ccccc2c1NC(=O)c1cccc(OC)c1OC -25.3%, Cc1ccccc1Nc1c(-c2cc(Br)ccc2F)nc2ccccn12 -0.687%, CCOC(=O)C1CCC(CN(Cc2ccccc2)S(=O)(=O)c2ccc(Br)cc2)CC1 (centres undefined) -14.3%, COc1cc(NC(=O)CCS(=O)(=O)c2ccc3c(c2)CC(=O)N3C)cc(OC)c1OC -5%, CCOc1ccc(-c2cc(C(=O)Oc3ccc(C#N)cc3)no2)cc1 22.9%, COc1ccc(/C=C/c2nc(C#N)c(NCc3ccc(F)cc3)o2)cc1OC -12.2%, COc1ccc(N2CCN(CCCNC(=O)c3cc(Nc4ccc(OC)cc4OC)nc4ccccc34)CC2)cc1 -19%, O=C(CCS(=O)(=O)c1ccccc1)N(Cc1cccnc1)c1nc2ccc(Cl)cc2s1 0.0578%, CCCN1Cc2cccc(C(=O)Nc3ccc(C(C)=O)cc3)c2C1=O -22.6%, COc1cccc(C(=O)c2c(N)c(-c3nc(-c4ccccc4)cs3)c3ccccn23)c1 -1.14%, Cc1cccc(-n2c(=O)c3c(c4cc(C)ccc4n3C)n(CC(=O)N3CCCC3)c2=O)c1 -21.7%, O=C(CN1C(=O)COc2ccccc21)NCCc1ccc(Cl)cc1 -12%, Cc1ccc(CNC(=O)c2ccc(NC(=O)N3CCSc4ncccc43)cc2)cc1 -30.4%, CCc1ccc(-n2c(=O)c3c4c(sc3n(CC(=O)N3CCCCC3CC)c2=O)CCC4)cc1 (centres undefined) -15.7%, Cc1ccc(NC(=O)Cn2c(=O)n(Cc3nc(C)no3)c(=O)c3ccccc32)c(Cl)c1 0.653%, Cc1c(CNC2CCCCC2)c(C(=O)O)c(C)n1Cc1cccc(Cl)c1 -10.6%, CCOc1ccccc1NC(=O)c1nc(SC(C)C)ncc1Cl -25.2%, CCc1ccc(NC(=O)CN2C(=O)C(c3ccc(Cl)cc3)=NC23CCCCC3)cc1 -29.1%, Cc1c(C(=O)Nc2cccc(Cl)c2)sc2nc3n(c(=O)c12)N=C(c1cccc(Br)c1)CS3 -15.1%, O=c1c2sc3ccccc3c2n(Cc2cccc(F)c2)c(=O)n1Cc1ccccc1 -12.1%, CCOC(=O)Cn1c(=O)n(CC2CCCO2)c2nc(-c3ccccc3OC)nc(C(N)=O)c21 (centres undefined) 1.85%, Cc1ccc2c(c1Br)C(O)(CC(=O)c1ccc(F)cc1)C(=O)N2 (centres undefined) -9%, Cc1cccc2sc(N(Cc3cccnc3)C(=O)CCc3ccccc3)nc12 -24.9%, CCOc1ccccc1C(=O)N(Cc1ccco1)Cc1ccco1 -8.21%, Cc1c(Cl)cccc1NC(=O)CC1Oc2ccccc2NC1=O (centres undefined) -7.47%, COc1ccccc1CNC(=O)C1CCCN(S(=O)(=O)c2ccc3c(c2)oc(=O)n3C)C1 (centres undefined) -24.5%, COc1ccc(-c2cc(C(=O)Nc3c(C(=O)c4ccc(C)cc4)oc4ccccc34)no2)cc1 7.13%, O=C(c1ccc2c(c1)N(Cc1ccccc1F)C(=O)c1ccccc1S2(=O)=O)N1CCC(Cc2ccccc2)CC1 -12.8%, CCC(CC)C(=O)OCc1cc(=O)n2nc(C3CC3)sc2n1 -15.6%, CC1=C(c2ccc(Cl)cc2)S(=O)(=O)NC1=NCCCN1CCN(c2cc(C)ccc2C)CC1 -20.2%, O=C(CCCn1c(=O)c2cccn2c2ccccc21)Nc1cc(C(F)(F)F)ccc1Cl -1.03%, COc1ccc(Cn2c(CCC(=O)Nc3cc(OC)c(OC)c(OC)c3)nc3cccnc32)cc1 -21.2%, CCOc1ccccc1NC(=O)CN1C(=O)COc2ccc(S(=O)(=O)N3CCOCC3)cc21 -1.5%, Cc1cc(C)n(C(C)CC(=O)Nc2cccc(C(F)(F)F)c2)n1 (centres undefined) -9.62%, O=C(Nc1cc(-c2nc3ccccc3o2)ccc1Cl)c1sc2c([N+](=O)[O-])cccc2c1Cl 4.05%, CC(C)(C)OC(=O)N1CCC(c2c(C(=O)NCc3cccc(Cl)c3)cnn2-c2ccc(F)cc2)CC1 -17.5%, COc1cc(/C=C(\C#N)C(=O)NCC2CCCO2)ccc1O (centres undefined) 10.7%, CCc1ccccc1NC(=O)CSc1nc(-c2cccc(Cl)c2)nc2c1Cc1c(CO)cnc(C)c1O2 -2.58%, Cc1ccccc1C(=O)Nc1nnc(S(=O)(=O)N(C)Cc2ccccc2)s1 -26.3%, COc1ccc(-n2c(-c3ccc(C)cc3)cc3c2CC(C)(C)CC3=O)cc1Cl 4.27%, CC1CCN(C(=O)Cn2c(=O)n(CC3CCC(C(=O)NC(C)C)CC3)c(=O)c3sccc32)CC1 (centres undefined) -4.24%, O=C(NCCCN1CCCCC1)c1sc2ncccc2c1-n1cccc1 18%, CC(C)c1ccc(Cn2c(COc3ccccc3)nc3ccccc32)cc1 1.49%, COc1ccc(S(=O)(=O)NCC(c2ccco2)S(=O)(=O)c2ccc(C)cc2)cc1F (centres undefined) -23.4%, CCn1nc(C)c2c(-c3ccccc3)cc(=O)n(C(C)C(=O)NCCC(C)C)c21 (centres undefined) 0%, CC(=O)Nc1ccc(NC(=O)CCc2nc3cccnc3n2Cc2cccs2)cc1 -17%, Cc1ccc(C(=O)Nc2ccc3c(c2)n(C)c(=O)c(=O)n3C)cc1 6.56%, Cc1ccc(NC(=O)Cn2nc(C(=O)Nc3ccc(C)cc3)ccc2=O)cc1 -13.1%, Cc1ccc(NC(=O)Cn2c(=O)n(Cc3nc(-c4ccccc4)no3)c(=O)c3cc4c(cc32)OCO4)cc1F 3.73%, CCOc1ccc(CCNC(=O)C2CCN(C(=O)N3CC(CC)Oc4ccccc43)CC2)cc1 (centres undefined) 5.84%, CCCCN(CC)CCCNC(=O)CS(=O)(=O)Cc1nc(-c2ccc(C)cc2)oc1C -12.1%, CCCOc1ccc(C(=O)Nc2ccc3oc(-c4ccncc4)nc3c2)cc1 -10.1%, O=C(Nc1nnc(N2CCCCCC2)s1)Nc1cc(F)ccc1F 0.514%, CCOCCCN(Cc1ccco1)S(=O)(=O)c1cc2c(cc1Cl)NC(=O)CO2 -7.4%, Cn1nnc2c(N3CCN(c4cccc(Cl)c4)CC3)ncnc21 -18.3%, COCCCNC(=O)c1c(NC(=O)Cc2coc3c(C)c(C)ccc23)sc2c1CCCC2 -20.2%, COc1cccc(CNC(=O)CCS(=O)(=O)c2ccc3c(c2)oc(=O)n3C)c1 53.6% [at 11.5 µM], CCC(Sc1nnc2c(n1)[nH]c1ccccc12)C(=O)Nc1nnc(C(C)C)s1 (centres undefined) -8.8%, CCCCOC(=O)c1c(N)n(-c2ccc(OC)cc2OC)c2nc3ccccc3nc12 -2.71%, Cc1ccc(C(=O)c2cc(O)c(O)c([N+](=O)[O-])c2)cc1, CCOc1ccc(C(=O)NCc2ccc3c(c2)CCN3C(=O)c2ccc(Cl)cc2)cc1 -1.24%
